# According to ChEMBL document CHEMBL1157539, “Thousands of chemical starting points for antimalarial lead identification” (Nature, 2010):
# Whole data set: some 13,000 compounds, median “IFI” near 4, cut for the highest 2% near 17. Some of the results follow.
# Assay: GSK_TCMDC: Inhibition Frequency Index (IFI). The number of non-kinase HTS assays where a compound showed > 50 % inhibition, expressed as a percentage of the number of such assays in which the compound was tested (-0 is zero)
# Type: functional
row,Compound,IFI [%]
1,c1ccc(C2CCC(N3CCC(N4CCN(c5ccccc5)CC4)CC3)CC2)cc1 (centres undefined),2.38
2,Cc1nc2ccc(F)cc2n1C1CCN(C(=O)Cc2ccc(F)c(F)c2)CC1,-0
3,N=C(N)c1ccc(NC(=O)Cc2nc3cc(C(=N)N)ccc3[nH]2)cc1,-0
4,Cc1cccc2nc(-c3ccc(-c4ccc(CN5CCCC(O)C5)cc4)s3)[nH]c12 (centres undefined),2.82
5,NC1=NC(c2ccccc2)N(c2ccc(Cl)c(Cl)c2)C(N)=N1 (centres undefined),2
6,O=C(Nc1ccc(-c2cccc(-c3nc4cc(C(F)(F)F)ccc4[nH]3)c2)cc1)c1csnn1,1.82
7,O=C(Nc1ccc(Cl)cc1)c1cc(Cl)cc2nc(C(F)(F)F)[nH]c12,27.1
8,Cc1cc(Cl)c(S(=O)(=O)NC(C)(C)C)cc1OCC(=O)NC1CCCCC1,0
9,Cc1cc(N(C)C)nc(Nc2ccc(NC(=O)COc3ccccc3)cc2)n1,11.8
10,COCCn1c(-c2cccc(Cl)c2)nn(-c2ccc([N+](=O)[O-])cc2Cl)c1=S,1.35
11,c1ccc(Oc2ccc(Nc3ccnc(Nc4ccc(CN5CCOCC5)cc4)n3)cc2)cc1,20.2
12,COc1ccc(C2CCN(CCCCNC(=O)c3ccc(NC(=O)c4ccc(Cl)cc4)cc3)CC2)c(C)c1,3.03
13,O=C(Cn1c(CCc2cccc(F)c2F)cc(=O)c2cccnc21)N(CCCn1ccnc1)Cc1ccc(-c2ccc(C(F)(F)F)cc2)cc1,2.27
14,O=S(=O)(c1ccc(OCc2ccc(Cl)cc2)cc1)c1cc2c(cc1OCc1ccccc1)CCN(CC1CC1)CC2,7.46
15,CCOC(=O)c1nc(-c2ccccc2)[nH]c1NC(=S)NC1CCCCC1,-0
16,O=C(NC1CCC(CCN2Cc3cccc(C(F)(F)F)c3C2)CC1)c1cccc(-c2cccnc2)c1 (centres undefined),2.92
17,Cc1cccc(NC(=O)N(Cc2cc3cc(C)cc(C)c3[nH]c2=O)C2CC2)c1,0.71
18,CCOC(=O)NOC(C(=O)O)c1ccccc1 (centres undefined),0
19,CN1CCN(C(=O)CN2CCC3(CCC2=O)NC(=O)c2ccccc2O3)CC1 (centres undefined),0
20,CCC1CN2CCc3c([nH]c4ccccc34)C2CC1CC1=NCCc2c1[nH]c1ccccc21 (centres undefined),5.15
21,O=C(/C=C/c1ccc(F)cc1)NC1CCC(CCN2CCc3ccc(-n4cccn4)cc3CC2)CC1 (centres undefined),2.96
22,COc1cccc2cc(C(=O)N[C@@H](CC(C)C)C(=O)N[C@H](C=NN3CCCC3=O)Cc3ccccc3)oc12,1.82
23,COc1ccc(CCn2c(C3CCCCC3)nc3oc4ccccc4c(=O)c3c2=O)cc1,10.3

row,Compound,IFI [%]
1,[O-][S+]1c2ccccc2Sc2ccccc21,1.48
2,Cc1ccc(OC2CCN(c3ccc(C(=O)NC4CC4)cn3)CC2)cc1,3.92
3,c1cncc(Oc2ccc(Nc3ccnc4cc(-c5cccc(CNCCN6CCOCC6)c5)ccc34)cc2)c1,8.89
4,O=C(Nc1ccc(I)cc1)Nc1ccc(Cn2ncc(N3CCCNCC3)c(Cl)c2=O)cc1,7.35
5,N#Cc1ccc2c(c1)CCN(CCC1CCC(NC(=O)Nc3ccncc3)CC1)C2 (centres undefined),1.4
6,CN1CCN(CCCN(Cc2cccc(-c3cccc(CNCCc4ccccc4)c3)c2)C(=O)Nc2ccccc2)CC1,8.7
7,Cc1cccc2nc(-c3ccc(-c4ccc(CN5CCN(c6ccncc6)CC5)cc4)s3)[nH]c12,11.3
8,CN1CCN(c2ccc(-c3cccc(NC(=O)c4ccc5ccccc5c4)c3)nn2)CC1,14.1
9,CCOc1cc(C(=O)Nc2cccnc2)cc(Br)c1OCCC(C)C,3.17
10,COc1ccc(-c2cccc(NC(=O)c3ccc(Cl)cc3)c2)cc1CNC(C)C,3.88
11,FC(F)(F)c1ccc2[nH]c(-c3ccc(-c4ccc(CN5CCN(c6ccncc6)CC5)cc4)s3)nc2c1,11.5
12,COC(=O)c1sc2ccccc2c1NC(=O)c1ccc(C)c(C)c1,1.4
13,Cc1cccc2nc(-c3cccc(-c4ccc(CNCc5ccc(S(C)(=O)=O)cc5)cc4)c3)[nH]c12,3.88
14,O=C(NCc1ccccc1)Nc1ccc(-c2cccc(-c3nc4cc(C(F)(F)F)ccc4[nH]3)c2)cc1,6.93
15,CCN(CC)c1nc(-c2ccccc2)cc(-c2ccccc2)c1C#N,3.01
16,COc1ccc(CNC2CCN(C)CC2)cc1-c1ccc(S(=O)(=O)NCCc2ccccn2)c(F)c1,1.89
17,COc1ccc(CNC(=O)Nc2cc3cc(-c4ccc(CN(C)C)cc4)ccc3n3c(C)nnc23)cc1,11.4
18,Cc1cccc2nc(-c3cccc(-c4ccc(CNCCCN5CCCC5=O)cc4)c3)[nH]c12,2.94
19,COc1cccc(CN2CCCC(CCC(=O)Nc3ccc(C(F)(F)F)cc3)C2)c1O (centres undefined),2.44
20,CCCCCCN1CCCN(Cc2ccc(C(=O)Nc3ccc(CCC)cc3)cc2)CC1,16.8
21,Cc1ccc(NC(=O)c2ccc3ncccc3c2)cc1OC1CCN(CCC(C)C)C1 (centres undefined),1.64
22,CN(C)c1cc(C(=O)N[C@@H](Cc2ccccc2)[C@H](O)CNC2CCCCC2)cc2[nH]ccc12,3.88
23,CCOC(=O)c1c(NC(NC(=O)c2ccc(C(C)(C)C)cc2)C(Cl)(Cl)Cl)sc2c1CCCC2 (centres undefined),1.54

row,Compound,IFI [%]
1,CS(=O)(=O)NCCCNCc1cccc(-c2ccc(-c3nc4ccccc4[nH]3)s2)c1,3
2,c1cc(CNC2CCCC2)cc(-c2ccc(CNc3ccc4ncccc4c3)cc2)c1,14.2
3,CC(C)(C)c1ccc(CN2CCC(CNC(=O)c3cc(-c4ccccc4)nc4ccccc34)CC2)cc1,3.17
4,CN(C(=O)c1ccc(Br)cc1)c1ccccc1[N+](=O)[O-],-0
5,Nc1cc(-c2cc3c(OCc4ccccc4)cccc3[nH]2)ccn1,-0
6,CCN(CC)CCN(Cc1ccc(-c2ccc(C(F)(F)F)cc2)cc1)C(=O)Cn1c(CCc2cccc(F)c2F)nc(=O)c2sccc21,12.6
7,CCn1c(-c2nc(-c3ccc4c(c3)OCO4)cnc2N)nc2cnccc21,12.3
8,Cc1sc2nc(CSc3ccccc3)nc(N3CCN(CC(=O)NC4CC4)CC3)c2c1C,2.99
9,COc1cccc(C2CCN(CCCCNC(=O)c3ccc(NC(=O)c4ccc(Cl)cc4)cc3)CC2)c1,0.76
10,Nc1nc(N)c2c(ccc3c2ccn3Cc2ccc(F)cc2)n1,11.3
11,O=S(=O)(NCCN1CCCC1)c1cccc(-c2cccc(CNCc3ccsc3)c2)c1,9.8
12,CC1CN(Cc2ccccc2)CCN1c1ccc(NC(=O)c2ccc(F)cc2)cc1 (centres undefined),-0
13,CC(C)NCc1cccc(-c2ccc(-c3nc4cc(C(F)(F)F)ccc4[nH]3)cc2)c1,3.85
14,CC(C)(C)OC(=O)n1cc(C2CCN(CCCC34CCCc5cccc(c53)NC4=O)CC2)c2ccncc21 (centres undefined),6.62
15,C=C[C@H]1CN(CCCCCCC)CC[C@H]1CCN(C)c1ccnc2ccc(OC)cc12,6.57
16,O=C(O)Cc1ccc(-c2c[nH]c3ncc(-c4cccc5ncccc45)cc23)cc1,1.89
17,CCN1CCC(N(CCCCCCCCc2ccc(C(F)(F)F)cc2)C(=O)Cn2c(CCc3cccc(F)c3F)cc(=O)c3ccccc32)CC1,8.51
18,O=C(NCCCCCN1CCC(c2c[nH]c3ccccc23)CC1)Nc1ccc(I)cc1,7.09
19,Cc1cc2c(cc1C(F)(F)F)N(C(=O)Nc1cc(OCCN(C)C)cc(C(F)(F)F)c1)CC2,9.46
20,C[C@H](Cc1ccc(CCc2ccc(C[C@@H](C)NC[C@H](O)c3cccc(Cl)c3)cc2)cc1)NC[C@H](O)c1cccc(Cl)c1,21.6
21,COc1c(C2CCN(CCCCNC(=O)C=Cc3cc4cc(Cl)ccc4o3)CC2)ccc2c1CCCC2,5.43
22,COc1ccccc1-c1csc(C(=O)NCC2CCN(Cc3ccc(C(C)(C)C)cc3)C2)c1 (centres undefined),13.5
23,COC(=O)c1cc(NC(=O)Nc2ccc(Cn3ncc(N4CCCNCC4)c(Cl)c3=O)cc2)cc(C(=O)OC)c1,4.48

row,Compound,IFI [%]
1,Cc1cccc2nc(-c3ccc(-c4cccc(NC(=O)c5cccc(C(N)=O)c5)c4)cc3)[nH]c12,7.02
2,O=C1NC(C(=O)Nc2ccccc2)C(c2ccccc2)S1 (centres undefined),-0
3,CCCc1cc(OC)c(CC2c3cc(O)c(Cl)cc3CCN2C)cc1OC (centres undefined),2.8
4,O=C(Nc1ccc(Cl)cc1Cl)N[C@H]1CCN(CCCCCNC(=O)C2CC2c2ccc(Cl)c(Cl)c2)C1 (some centres undefined),15.1
5,CC(=O)Nc1ccc(C(=O)Nc2ccc(-c3cccc(-c4nc5cc(F)ccc5[nH]4)c3)cc2)cn1,2.7
6,c1ccc2sc(-c3csc(Nc4ccncc4)n3)nc2c1,4.11
7,CC(C)(C)CC(=O)Nc1ccc(Nc2cc(-c3ccncc3)cc3ncc(C(N)=O)cc23)cc1,2.16
8,COCCNCc1cccc(-c2cccc(CNC3CCN(Cc4ccccc4)CC3)c2)c1,5.07
9,COc1cc2nc(SCC(C)C)n(CCCn3ccnc3)c(=N)c2cc1OC,1.34
10,O=C(C=Cc1ccc(Cl)c(Cl)c1)NCCCCCN1CCCC(CCCNC(=O)c2cccs2)C1 (centres undefined),2.29
11,COc1ccccc1N1CCN(c2cccc(F)c2C#N)CC1,2.22
12,CN1CCN(c2ccnc3ccc(NC(=O)Nc4ccc(-c5ccncc5)c5ccccc45)cc23)CC1,4.41
13,N#Cc1ccc(N2CCN(C(=O)c3cccc(-c4noc(C(F)(F)F)n4)c3)CC2)nc1,3
14,Cc1noc(C)c1-c1cccc(CNCc2cccc(-c3ccc(-c4nc5cccc(C)c5[nH]4)cc3)c2)c1,4.85
15,Cc1cnc(Nc2ccccc2)nc1N[C@@H](CCCN)C(=O)Nc1ccccc1,2.38
16,Cc1ccc(CNc2cc(C(F)(F)F)nc(-c3ccc(S(C)(=O)=O)cc3)n2)cc1,2.24
17,CC(CNC(=N)c1cccc(C(=N)NCC(C)Oc2cccc(C3CCCCC3)c2)n1)Oc1cccc(C2CCCCC2)c1 (centres undefined),17.7
18,COCCNC(=O)C1CCN(C(c2ccc(Cl)cc2)c2ccc(Cl)cc2)CC1,1.39
19,COCCn1c(Sc2ccc(C#N)c([N+](=O)[O-])c2)nnc1-c1ccc(N(C)C)cc1,1.43
20,O=C(Nc1cccc(-c2cccc(-c3nc4ccccc4[nH]3)c2)c1)Nc1ccc(Cl)c(Cl)c1,4
